# Out of some 150,000 compounds screened, about 540 (0.36%) showed an effect of 50% or more. This is one part of the list.
# Tested on: Plasmodium falciparum
# Assay: Primary screen in NF54 nanoGlo assay, in single point, at 2uM, 72h; a lower Z score goes with more inhibition
# Format: functional, Erythrocyte
# Conditions: timepoint 72 hour
Structure (SMILES),% Inhibition [%],Z score
Cc1nc(C)c(-c2csc(C[C@H](C)n3cc(Cl)cn3)n2)o1,-17,1.97
Cc1nn(C(C)C)c(C)c1CN(C)c1cc([C@H]2CCOC2)ncn1,2,-0.38
O=C(O)[C@@H](c1ccsc1)N1CCC(c2nc(-c3ccccc3)n[nH]2)CC1,-8,1.43
Cn1nncc1S(=O)(=O)N1CC(C)(C)C1C1CCCO1 (stereo not given),-8,0.76
Cc1cc(NC(=O)c2cc(N3CCOCC3)ncn2)[nH]n1,12,-1.56
O=C(N[C@H]1[C@H](O)[C@H](O)C[C@@H]1c1ccncc1)C1CCOCC1,-1,0.11
O=C(CC1CCCC1)NCCCN1C(=O)CNC1=O,2,-0.45
CS(=O)(=O)N1CCC(C(=O)N(Cc2cccs2)Cc2cccs2)CC1,-10,1.52
O=C(NC[C@H]1CCCN(c2cc(O)ncn2)C1)c1ccccc1-n1cnnc1,2,-0.44
COc1ccc(CCOc2nc(-c3ccc(Cl)c(Cl)c3)n(-c3ccc(NC(=O)C(C)C)cc3)n2)cc1,-12,1.35
CC(C)(C)CN1CCC[C@@](O)(CNC(C)(C)C)C1=O,-5,0.77
C[C@H](NC(=O)N1CCC(CCc2ccc(F)cc2F)CC1)c1cccnc1,-5,0.92
Cc1cccc2cc3c(nc12)N(C(=O)COc1ccccc1)CC3,2,-0.26
O=C(Cn1cc(S(=O)(=O)N2CCCCC2)ccc1=O)Nc1ccccc1,-6,1.27
CCC(CC)N(C)Cc1nncn1C(C)C,-5,0.7
O=C(c1cccc(Cl)c1)N1CC[C@@]2(C1)NC(=O)N(Cc1ccc(Cl)cc1)C2=O,8,-1.02
O=c1ccn(CCCOc2ccc(F)cc2)c2c(OC(F)(F)F)cccc12,-9,1.22
CC(C)c1nn(C)c(N2CCOCC2)c1CNc1cc(CCc2ccccc2)ccn1,-7,1.04
Cc1nn(-c2ccc(C(C)(C)C)cc2)c(C)c1[C@@H]1C=C[C@@H](NC(=O)CC(C)(C)CC(=O)O)C1,33,-3.69
Cc1cccc(-c2nc(CN3CC[C@]4(CCCO4)CCC3=O)c(C)o2)c1,3,-0.48
C[C@@H](CNc1nc2cc(Br)ccc2o1)c1nncn1C,-11,2.06
Cc1noc([C@@H]2CN(C(=O)Nc3cc(C)c4cn[nH]c4c3)C[C@H](C)O2)n1,-3,0.53

Structure (SMILES),% Inhibition [%],Z score
Nc1cc(F)cc(CNC(=O)C(F)(F)F)c1,-7,1.01
CCN(CC1CCCO1)C(=O)NC1CCCc2occc21 (stereo not given),-12,1.63
COc1cc(C)c2[nH]c3c(c(=O)c2c1)CN(CC(=O)Nc1ccc(F)c(C)c1)CC3,43,-1.61
Cc1cc(CS(=O)(=O)NCCOc2ccc(Cl)cc2)on1,31,-0.24
COc1ccc(F)c(-c2ncccc2C(=O)N2C[C@@H]3CC[C@H]2C3)c1,9,-1.28
N#CCC[C@H](NC1CCC2(CC1)OCCO2)c1ccccc1,1,-0.07
Cc1ccc2nc(C(=O)N3CCCN(c4ccccc4C)CC3)c(F)n2c1,-6,1.14
CN(Cc1ccno1)C(=O)c1cc(Cn2ccc3ccccc32)[nH]n1,-3,0.39
C#CCNC(=O)[C@H](C)N1CCOC(C)(C)C1,-16,1.92
CC(C)c1nc(N2CCC(c3[nH]ncc3Cc3ccccc3)CC2)no1,-14,1.34
OC[C@H](Nc1ccccc1)c1ccccc1,-8,1.05
O=C(Nc1ccc2c(c1)OCO2)c1cc2ccccc2[nH]1,0,0.02
CC(=O)c1ccc(Oc2nc(C)nc(N(C)Cc3ccc(F)cc3)c2N)cc1,-1,0.18
CCc1nnc(NC(=O)[C@H](C)N2CCC3(CC2)N=C(N(C)C)NC3=O)s1,0,-0.08
CCOc1ccc([C@@H]2c3cccn3CCCN2Cc2ccc(F)cc2)cc1,-5,0.64
CC[C@@H](CNc1cccc(C(=O)N(C)C)n1)N1CCOCC1,-1,0.23
Cn1cc([C@@H]2CCCN2Cc2noc(-c3ccccc3)n2)cn1,3,-0.49
CCN(CC)S(=O)(=O)c1ccc(N2CCOCC2)c(NC(=O)c2ccc(S(=O)(=O)N3CCCCCC3)cc2)c1,3,-0.51
C=CCN1C(=O)C(C(=O)NC(C)(C)C)[C@H]2C[C@@]1(C)Oc1ccccc12 (stereo not given in full),1,-0.15
Cc1ccc(C)c(NC(=O)c2ccccc2-c2nc3ccccc3s2)c1,11,-1.43
N#Cc1cnn2ccn(CC(=O)Nc3cccc(F)c3)c12,-6,0.83
O=S(=O)(NCCc1ccoc1)c1ccc(N2CCCCS2(=O)=O)cc1,-11,1.66

Structure (SMILES),% Inhibition [%],Z score
O=C1c2ccccc2C(=O)N1CCN1CCN(c2ncnc3sccc23)CC1,-13,1.5
COc1ccc(OC)c(NC(=O)N2CCC3(CC2)Oc2ccccc2C(=O)N3Cc2ccccc2F)c1,-9,1.18
CC1(C)CC(NCc2n[nH]c(N)n2)CC(C)(C)C1,-8,1.16
CCC(C)CN1C(=O)C(Cc2ccccc2)NC12CCN(S(=O)(=O)c1ccc(C)cc1)CC2 (stereo not given),-13,1.83
c1ccc(-c2nc(CN3CCCCCCC3)cs2)cc1,-10,1.49
C1CCC(Oc2nnc(C3CC3)s2)C1,-3,0.63
CC(=Cc1ccccc1)CNCCNc1ncccn1,-10,1.03
Cc1cccc(CC2(O)CCN(C(=O)c3cc[nH]c(=O)c3)CC2)c1,-5,0.97
O=C1COc2ccc(Cl)cc2N1Cc1nc(-c2ccc(S(=O)(=O)N3CCCC3)cc2)no1,-8,1.23
O=S(=O)(c1cccc(Cl)c1F)N(Cc1ccccn1)C1CC1,13,-1.93
CN1CCN(C(=O)CCNS(=O)(=O)c2cccc(F)c2F)CC1,-1,0.11
CC(=O)Nc1cc(Br)cnc1C,-6,0.78
Cc1cnc(C(=O)N2CCCN(CC3CC3)[C@H](C(C)C)C2)cn1,10,-1.25
CCCc1nc2n(n1)C1(CCCCC1)[C@@H]1CCCC[C@@H]1N2,-17,1.5
CCN1CCC(N(C)CCS(=O)(=O)c2cccc(C#N)c2)CC1,-5,0.52
CCn1cnnc1CCNC(=O)c1cccc(C)n1,-27,3.47
O=C(Cc1ccc(Cl)cc1F)NC1CC2CCC1C2 (stereo not given),-20,1.77
CC1=CC[C@H]2CN(C(=O)c3ccc4ncccc4c3)C[C@H]2C1,-15,1.92
Cn1ccc2ccc(CN3CC[C@H](C(C)(C)O)C3)cc21,-17,2.26
C#CC(CC)(CC)NC(=O)Cc1cccc(C)c1,0,0
O=C(c1snc(O)c1Cl)N1CCO[C@H](C2CCC2)C1,-4,0.77
Cc1ccc(CNC(=O)[C@H]2CCc3cn[nH]c3C2)cc1,0,0.08

Structure (SMILES),% Inhibition [%],Z score
CN(Cc1nnc2n1CCOCC2)C(=O)Nc1ncc(C(C)(C)C)s1,0,0.05
O=C(Cc1ccc(O)cc1Cl)Nc1nccn1Cc1ccccc1Cl,12,-1.56
CC(C)Cc1cc(C(=O)N(C)Cc2cc3cc(F)ccc3[nH]2)nc(N)n1,-9,1.08
CC(C)(NC(=O)C(F)(F)F)C(=O)NCc1nc(C(F)(F)F)c[nH]1,-6,1.27
Cc1noc(C)c1Cc1nc(-c2ccsc2)no1,1,-0.09
O=C(NC[C@H]1COc2ccccc2O1)c1ccncc1,3,-0.48
C[C@H]1CN(C(=O)Cc2ccc3c(c2)OCO3)CC[C@]1(O)C1CC1,3,-0.36
CCCN(Cc1cnc(OC)nc1)Cc1ccccc1F,-8,1.49
CN(C)C[C@@H]1COCCN(C(=O)Nc2cnn(Cc3cccc(F)c3)c2)C1,-6,1.04
N/C(CS(=O)(=O)c1ccc(Cl)cc1)=N/O,-9,1.18
COc1c(C(=O)N2CC3(CCCCC3)[C@@H]2C(C)C)cnn1C,3,-0.4
Cc1nc2c(c(N3CCCCC3)n1)CN(C(=O)c1ccc(-c3ccccc3)cc1)CC2,-4,0.47
CCCc1ccc(S(=O)(=O)N2CCN(c3c(-c4ccccc4)cnc4ncnn34)CC2)cc1,-1,0.05
O=C(Cc1ccc(Cl)s1)NC[C@H]1CCCC[C@@H]1O,-11,1.7
CC(C)(C)CC(C)(C)NC1=NCCNC12CCN(C(=O)OC(C)(C)C)CC2,-12,1.62
CC(C)c1nnc(CN2CCC3(CC2)C[C@H](c2ccccc2)CN(C)C3)o1,-6,1.18
O=C(NCc1ccon1)c1cnc(Cc2c(Cl)cccc2Cl)nc1O,2,-0.39
CC(C)[C@@]1(O)CN(CCN2CCCC2=O)C[C@@H]1C,-8,1.52
Cc1nc(-c2cc(S(=O)(=O)N3CCC(C(=O)Nc4ccc5c(c4)OCCO5)CC3)c(C)s2)no1,-21,1.86
